Z-score data for 113 compounds are collected here from PubChem BioAssay AID488969 (Vanderbilt High Throughput Screening Facility, 2010).

SMILES strings stand for the structures. In all, about 110,000 compounds were measured (“z-score”: median about -0.1, highest 2% from about 2 on). The list shows a part of the results. Activity calls are given as the source filed them.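 The calls were made as follows: active = z-score in the third read window above 3 or below -3; inactive = the rest.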

For this assay, the target named is Metabotropic glutamate receptor 8 (Rattus norvegicus) (UniProt P70579). Kind of assay: rat mGluR8 modulators via GIRK flux, primary screen, cell-based, thallium flux, HTS (AID 488969). Conditions: HEK293 rat mGluR8, GIRK (G protein-gated inwardly rectifying potassium channel) thallium flux, FluoZin2; at 10 µM; stronger effect = higher value; submaximal glutamate (EC20) added with thallium.
Sequence of UniProt P70579 (P70579 whole entry, looked up): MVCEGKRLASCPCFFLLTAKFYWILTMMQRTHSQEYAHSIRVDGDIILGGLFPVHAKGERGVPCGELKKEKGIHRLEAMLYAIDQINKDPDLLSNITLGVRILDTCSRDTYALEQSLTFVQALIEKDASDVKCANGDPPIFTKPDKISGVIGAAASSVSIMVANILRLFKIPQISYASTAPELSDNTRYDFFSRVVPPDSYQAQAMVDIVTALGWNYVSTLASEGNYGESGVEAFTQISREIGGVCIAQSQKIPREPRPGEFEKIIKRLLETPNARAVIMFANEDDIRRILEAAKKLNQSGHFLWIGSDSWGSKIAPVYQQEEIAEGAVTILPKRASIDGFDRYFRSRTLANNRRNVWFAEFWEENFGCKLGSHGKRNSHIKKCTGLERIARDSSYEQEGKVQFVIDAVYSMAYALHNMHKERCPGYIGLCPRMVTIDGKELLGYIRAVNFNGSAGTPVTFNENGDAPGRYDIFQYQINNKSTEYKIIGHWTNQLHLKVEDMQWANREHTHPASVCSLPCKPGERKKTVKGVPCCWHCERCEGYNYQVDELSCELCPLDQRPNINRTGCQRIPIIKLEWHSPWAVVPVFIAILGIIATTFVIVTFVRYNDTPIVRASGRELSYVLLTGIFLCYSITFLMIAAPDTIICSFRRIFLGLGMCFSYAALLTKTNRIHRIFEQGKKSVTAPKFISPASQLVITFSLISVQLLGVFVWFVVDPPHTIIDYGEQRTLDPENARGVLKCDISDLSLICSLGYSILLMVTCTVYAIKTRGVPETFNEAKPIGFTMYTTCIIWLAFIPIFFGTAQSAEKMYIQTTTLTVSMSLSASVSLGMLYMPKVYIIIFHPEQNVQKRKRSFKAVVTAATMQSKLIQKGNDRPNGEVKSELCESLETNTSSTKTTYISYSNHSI
Compound `C=CCn1c(SCC(=O)Nc2ccc(C)cc2C)nnc1-c1cccnc1` came in with a z-score of -0.245. To `COc1ccc(C(C[N+](=O)[O-])c2c(-c3ccccc3)cc3ccccn23)cc1` (stereo not drawn) belongs 0.715. For the compound `Cc1ccc(/C=C/c2nnc(-c3ccccc3)o2)cc1`, the z-score is -0.0954. The figure for `O=S(=O)(c1ccc(F)cc1)N1CCN(C(=S)NC2CCCC2)CC1` is -0.225; for `COc1cc2nc(CN(C)Cc3nc4ccccc4c(=O)[nH]3)[nH]c(=O)c2cc1OC` it is -0.442.

`Cc1cccc(NC(=O)C2NC(=O)CC2c2ccccc2)c1C` (stereo not drawn) came in with a z-score of 0.0322. To `COc1cccc(C(C(=O)NC2CCCCC2)N(C(=O)c2ccco2)c2ccc(-n3cnnn3)c(C)c2)c1` (stereo not drawn) belongs -0.0284; to `COc1ccc(C)cc1N(C(=O)COc1ccccc1)c1nc2ccccc2s1`, -0.872; to `N=c1n(Cc2ccc(Cl)cc2)c2ccccc2n1CC(O)c1ccco1` (stereo not drawn), 0.315. In turn, `OC(CN1CCCCC1)Cn1c(C(F)(F)F)nc2ccccc21` (stereo not drawn) yielded a z-score of 0.391. To `CC(NC(=O)Nc1ccc(Cl)cc1)C(c1cccs1)N1CCOCC1` (stereo not drawn) belongs 1.04; to `COc1ccc(NC(=O)/C=C/c2ccc(F)cc2)cn1`, -0.0123; to `CSc1nc2ccccc2n1CC(=O)Nc1c(C)cccc1C`, -1.32. The figure for `CC(C)C(=O)NC(c1ccco1)c1c(O)ccc2ccccc12` (stereo not drawn) is -0.289. The figure for `Cc1ccc(-c2csc(NC(=O)C3CC=CCC3C(=O)O)c2C(=O)OC(C)C)cc1` (stereo not drawn) is 0.131. Consider `COc1ccccc1CNC(=O)C(C)NS(=O)(=O)c1ccccc1` (stereo not drawn), for which the z-score was -0.89. To `CCn1c(=NC(=O)c2ccc(S(=O)(=O)N3CCOCC3)cc2)sc2cccc(OC)c21` belongs -0.172; to `CC(=O)N1CCc2cc(S(=O)(=O)CCC(=O)NCc3cccs3)ccc21`, 0.0317; to `CCOC(=O)C(=O)NNc1ccc(C)cc1`, 0.000829.

Take `O=S(=O)(NCC1CCCO1)c1ccc(S(=O)(=O)N2CCCC2)cc1` (stereo not drawn): the z-score is 0.352.

With `[O-]/[N+](=C/c1ccc(F)cc1)c1ccccc1`, the z-score is -0.26. On to `CN(C)S(=O)(=O)c1ccc(C(=O)NC(=O)CSc2ccccc2)cc1`, for which the z-score was 0.101. The figure for `CCOc1ccccc1CNC(=O)CCNC(=O)Cn1ccc2ccccc2c1=O` is 0.269. `COc1nc(-c2ccccc2)cc(-c2ccc(OC)c(OC)c2)n1`: the z-score was -0.612. To `COCCOc1ccc(C(F)(F)F)cc1NC(=O)c1ccc(C)cc1` belongs -0.204; to `COc1ccccc1CNC(=O)c1ccc(NS(=O)(=O)c2c(C)noc2C)cc1`, -0.259. To `Cc1ccc2nc(C)cc(N3CCOCC3)c2c1` belongs 1.22; to `Cn1c(SCC(=O)c2ccc3c(c2)Cc2ccccc2-3)nnc1-c1ccccc1`, 0.0103. `CCN1C(=O)/C(=C2\C=Cc3ccccc3N2CC)OC1=S` registered a z-score of -0.536. To `FC(F)(F)c1cc(-c2ccco2)nc(NCc2ccco2)n1` belongs -0.773; to `CCCCCCC(=O)Nc1nc(C)c(-c2csc(Nc3cc(Cl)ccc3C)n2)s1`, 0.0842.

Consider `CCCn1c(N2CCN(C)CC2)nc2c1c(=O)[nH]c(=O)n2C`, for which the z-score was 0.044. The figure for `Cc1cc(C)n2nc(Cc3ccccc3)nc2n1` is -0.125; for `COc1cc(NS(=O)(=O)c2ccc(Br)s2)cc(OC)c1` it is 0.398. To `O=C(CCN1C(=O)COc2ccccc21)NCCCN1CCN(c2ccccc2F)CC1` belongs 0.474; to `O=C(CCSc1nc(-c2ccco2)cc(C(F)(F)F)n1)NCc1cccs1`, -0.574.

Regarding `CC(C)CNC(=O)/C=C/c1cccs1`, the z-score was -0.176.

The compound `Cc1ccc(-n2c(C)csc2=N)cc1` returned a z-score of -0.299. The figure for `CNC(=S)NCc1ccc(OC)cc1` is -0.0941.

`COc1ccc2c(c1)c1nc3ccccc3nc1n2Cc1ccc(OC(C)C)c(OC)c1` came in with a z-score of -0.644.

On to `CCn1ncc(/C=N\NC(=O)COc2ccccc2)c1C`, for which the z-score is 0.185. To `COC(=O)c1sccc1NC(=S)N1CC(C)CC(C)C1` (stereo not drawn) belongs 0.0349.

`CC(=O)c1c(C(C)=O)c(C)n(CCCCn2c(C)c(C(C)=O)c(C(C)=O)c2C)c1C` showed a z-score of -0.0757. `O=S(NCc1ccco1)C12CC3CC(CC(C3)C1)C2` (stereo not drawn) registered a z-score of -0.122. For `Cc1nn(-c2nc3ccccc3s2)c(N)c1-c1ccc(Cl)cc1`, the z-score is 0.0121. To `CCN(CC)CCn1c2ccccc2c2cnc(N)c(C#N)c21` belongs -0.434. The figure for `CCCC(C)c1nnc(NC(=O)CS(=O)(=O)Cc2ccccc2)s1` (stereo not drawn) is 1.15; for `Cc1ccc(-c2nn(C)c(=O)c3ccccc23)cc1CNC(=O)CN1CCOCC1` it is -0.774. To `COc1ccc(CCNc2ccc(C)cc2)cc1` belongs -0.282.

For `O=S(Cc1cc(Oc2ccccc2)nc(-c2ccccc2)n1)c1ccccc1` (stereo not drawn), the z-score is -0.774. `COc1ccc(NC(=O)N2CCCC2)cc1OC` returned a z-score of -0.0117. The figure for `CNC(=O)C(C)NS(=O)(=O)c1ccc(F)cc1` (stereo not drawn) is -0.143; for `c1ccc(-c2cc3n(c2)CCc2ccccc2-3)cc1` it is -0.476. To `O=P(O)(CCc1ccccn1)CN1CCOCC1` belongs 0.13; to `COc1ccccc1CN1C(=O)c2ccncc2C1=O`, -0.233; to `CCOC(=O)c1c(-c2ccccc2)csc1NC(=O)c1ccc(N2C(=O)CCC2=O)cc1`, -0.0931. To `CN1CC=C2C(C#N)=C(N)C(C#N)(C#N)C(c3ccsc3)C2C1` (stereo not drawn) belongs -1.4. Turning to `Cc1csc2ncc(C(=O)N3CCCc4ccccc43)c(=O)n12`, the z-score is -0.186. To `COc1cccc(NC(=O)Cn2c(=O)n(-c3ccccc3)c(=O)c3oc4ccccc4c32)c1` belongs -0.377. To `COc1ccc(NC(=O)CN2CCN(C3c4ccccc4-c4ccccc43)CC2)cc1` belongs -0.411; to `CN(C)CCNC(=O)Cn1nc(-c2ccc(Cl)cc2)ccc1=O`, -0.312. To `Cc1ccc2c(CC(=O)OCC(=O)Nc3ccc(Cl)cn3)coc2c1` belongs -0.196.

Compound `O=C(CCN1C(=O)c2ccccc2C1=O)N1CCN(C2c3ccccc3-c3ccccc32)CC1` gave a z-score of 0.0521. The compound `Cc1cnc(C(=O)OCC(=O)NC23CC4CC(CC(C4)C2)C3)cn1` yielded a z-score of -1.14.

On to `COc1ccc(/C=N/NC(=O)Nc2cccc3nsnc23)cc1OC`, for which the z-score is -0.147.

The compound `CCN1CCN(CC(=O)c2c(C)n(C)c3ccc(OC)cc23)CC1` yielded a z-score of -0.0747. Consider `CCCOc1ccccc1-n1sc2c(c1=S)-c1cc(OC)cc3c1N(C(=O)C3=O)C2(C)C`, for which the z-score was 0.501. The figure for `Cc1cccc(OCCCC(=O)Nc2ccc(S(=O)(=O)N3CCCC3)cc2)c1` is -0.312; for `CN1C(=O)C2(C(C#N)=C(N)N(c3cc(Cl)cc(Cl)c3)C3=C2C(=O)CC(C)(C)C3)c2ccccc21` (stereo not drawn) it is -0.762; for `Cc1c(CNC(=O)c2cnn3c2NC(c2ccc(Br)cc2)CC3C(F)(F)F)cnn1C` (stereo not drawn) it is 0.0271. The figure for `CCOc1ccc(C2=C/C(=C/c3cccnc3)C(=O)O2)cc1` is -0.24. `Cc1ccc(-c2nc(CS(=O)CC(=O)NCc3ccccc3)c(C)o2)cc1` (stereo not drawn) came in with a z-score of -0.894. To `CN(C(=O)c1ccc(=O)[nH]c1)C1(C(=O)NC2CCCCC2)CCCCC1` belongs -0.0324; to `COCCCNC(=S)NNC(=O)Cn1nc(C)c(Br)c1C`, -0.277. For the compound `CCn1c(=O)cc(SCC(=O)NCC2CCCO2)c2ccccc21` (stereo not drawn), the z-score stood at 0.0159. To `O=C(NNc1nc2ccccc2s1)Nc1ccccc1` belongs -0.265. To `OC(c1ccc(Cl)cc1)C(O)c1nc2ccccc2[nH]1` (stereo not drawn) belongs -0.311. To `COc1ccc(C(=O)Cn2nnc(-c3ccccc3NC(=O)C(F)(F)F)n2)cc1` belongs 0.168; to `COc1ccc(/C=C(\C#N)C(=O)OCC(=O)Nc2c(C)cccc2C(C)C)cc1`, -0.141. The compound `Nc1n[nH]c2c1C1(CCCC1)Cc1ccccc1-2` came in with a z-score of -0.655. To `Cc1cc2c(cc1C)NC(c1cccnc1)C1=C(CC(C)(C)CC1=O)N2` (stereo not drawn) belongs 0.0448.

For the compound `CC(C)NS(=O)(=O)c1ccc(CCC(=O)Nc2ccc3c(c2)OCCO3)cc1`, the z-score is 0.0498.

For `C#CC[N+]1(CC#Cc2ccccc2)CCOCC1`, the z-score was -0.041.

`Cc1nc2c3ccccc3nc(SCC(=O)c3ccc(Cl)cc3)n2n1` gave a z-score of -0.148. To `CC(=O)C1=C(O)C(=O)N(CCN2CCOCC2)C1c1ccccc1` (stereo not drawn) belongs -0.155. To `CC1(C)CC2CC(C)(CN2C(=S)NC(=O)c2ccccc2Cl)C1` (stereo not drawn) belongs active: 8.8.

For the compound `O=C(NCC(=O)N1CCCC1)c1cccs1`, the z-score stood at 0.211. Regarding `Cc1onc(-c2ccccc2)c1C(=O)n1nnc2ccccc21`, the z-score is -0.539. The figure for `O=C(CN1CCOCC1)NCCC12CC3CC(CC(C3)C1)C2` is 1.04; for `O=C1NC(c2ccccc2)=NC1(NS(=O)(=O)c1ccc(Cl)cc1)C(F)(F)F` (stereo not drawn) it is -0.195.

Regarding `CC1(C)Cc2noc(N)c2C(C)(C)N1OC(=O)c1scc2c1OCCO2`, the z-score is -1.21.

`CN1CCC(N(C)CC(=O)Nc2ccccc2N2CCOCC2)CC1` displayed a z-score of -0.342. In turn, `Cc1ccc(SCCC(=O)Nc2ccccc2C(=O)NC(C)C)cc1` yielded a z-score of -0.31. To `O=C(NC1CCCc2ccccc21)c1ccc(Br)cc1` (stereo not drawn) belongs 1.55. `CCN(CC)CCNC(=O)CCn1c(=S)[nH]c2cc3c(cc2c1=O)OCO3` showed a z-score of -0.266. To `CCN1CCN(C(c2cccc(OC)c2)c2sc3nc(C)nn3c2O)CC1` (stereo not drawn) belongs -0.106. Regarding `Clc1ccc(OCc2nnc(-c3ccccc3Br)o2)c(Cl)c1`, the z-score is -1.3.

With `Cc1cc(C)c(C)c(S(=O)(=O)NCc2cccnc2)c1C`, the z-score was found to be 0.134. To `O=C(NC1(C(F)(F)F)N=C2SCCN2C1=O)C1CCCCC1` (stereo not drawn) belongs 0.214. The figure for `CC(CCc1ccccc1)NC(=O)COC(=O)C1CCC(C(C)(C)C)CC1` (stereo not drawn) is -0.126; for `O=S(=O)(NC1CC1)c1ccc(S(=O)(=O)N2CCCC3(CCCCC3)C2)cc1` it is 0.413. As for `O=C1OC(Nc2nccs2)c2ccccc21` (stereo not drawn), the z-score was -0.00869. The compound `CC(C)C1=CC(=NS(=O)(=O)c2cccc([N+](=O)[O-])c2)C=C(C(C)C)C1=O` returned a z-score of -0.321. The figure for `O=C1c2ccccc2C(Nc2ccc(Cl)cc2)N1CCN1CCOCC1` (stereo not drawn) is -0.147; for `COc1cccc(Oc2coc3c(CN4CCOCC4)c(O)ccc3c2=O)c1` it is 0.337; for `CC(=O)C1=C(O)C(=O)N(CCC(=O)O)C1c1ccccc1Cl` (stereo not drawn) it is -0.0507.

For the compound `O=C(NC1CCCC1)c1ccc(CN2CCOCC2)cc1`, the z-score is -0.173. Turning to `Nc1nnc(COc2ccccc2)s1`, the z-score was -0.0878.

`CC(NC(=O)c1ccc(Cn2cc([N+](=O)[O-])cn2)cc1)c1ccccc1` (stereo not drawn) gave a z-score of -0.0865. The figure for `COc1ccc(NC(=O)/C(Cl)=C(/Cl)S(=O)(=O)Cc2ccc(C)cc2)cn1` is -0.418; for `CCOc1ccc(-c2nc(CSc3nnc(C)s3)cs2)cc1OC` it is -0.138; for `COc1cccc(/C=N/NC(=O)CCCc2ccc(OC)c(C)c2)c1` it is -0.14. `Cc1n[nH]c(C)c1S(=O)(=O)N1CCC(C(=O)N2CCn3c2nc2ccccc23)CC1` yielded a z-score of -0.214.
